Among the data in the RNAGym collection of RNA variant scans (doi:10.7554/elife.90254) are self-cleavage values, retold here.

B1: LINE1-mini (parent)
chain: GGCAGAGCUCAACACAGCGUGGCAAAGUGGCUGUGGCUAGACUGCC

The source gives no read counts; variants with many changes may rest on few reads.

Variants of B1 are the subject of the data set. Kind of data set: self-cleavage, relative activity (ratio to wild type); higher = more cleavage; in vitro, sequencing; the parent is a self-cleaving ribozyme.
GGCGGUGCUCAACACAUCGUGGCAAAGUGGCUGUGGCUAGACUGCC [A4G A6U G17U]: the self-cleavage was 0.17.

For the variant GGCAGAGCUUAUCACAGCGUGGCUAAGUGUCUGUGGCUAGACUGCC [C10U A12U A24U G30U], the self-cleavage came out at 0.1.

GGCAGAGCUCAACACAGCGUGGCACAGUGGCUGUUGCGAGACUGCC [A25C G35U U38G]: the self-cleavage was 0.01.

Consider GGCAGAGCUCAACACAGCGUGGCACAGUGGCUGUGGCGACACUGCC [A25C U38G G40C], for which the self-cleavage amounted to 0.01.

For GGCAGAGCUCAACACAGCGUGGCAAAGUGGCUGUUGCCGAGACUGC [G35U U38C A39G G40A A41G C42A U43C G44U C45G], the self-cleavage is 0.05.

As for GGCUUAGGCCAACACAGCAUGGUAUAGUGGCUGUGGCUAGACUGCC [A4U G5U C8G U9C G19A C23U A25U], the self-cleavage is 0.05.

As to GGCAGAGGUCAGCACAGAGUGGCAAAGUGGCUGUGGCUAGACAGCC [C8G A12G C18A U43A], the self-cleavage amounted to 0.02.

On to GGCAGAGCUCAGCACGGCGUGGAAAAGUGGCUUUGGCUAGACUGCC [A12G A16G C23A G33U], for which the self-cleavage turned out to be 0.03.

As to GGCGGAGCUCAACACAGCGUGGCAAAGUGGCGAUGGCUAGUCUGCC [A4G U32G G33A A41U], the self-cleavage was 0.02.

Take GGCAGAGCUCAACAAAGCGCGGCAAAGUGGCUAUGGCUAGACUGCC [C15A U20C G33A]: the self-cleavage stood at 0.06.

Turning to GGCAGAGCUCAACACCGCGUGGCAAAGUGGCUGUGGGAAGACUGCC [A16C C37G U38A], the self-cleavage is 0.05.

Consider GGCAAAGCUUAACACAGGGUGGCAAAAUGGCUGUGACUAUAUUUCC [G5A C10U C18G G27A G36A G40U C42U G44U], for which the self-cleavage was determined as 0.07.

Consider GGCAGAGCUCAAUACAGCAUGGCAAAGUGGAUGUGGCGAGACUGCC [C13U G19A C31A U38G], for which the self-cleavage was found to be 0.01.

Regarding GGCAGAGCUCAACACAUCGUGGCAAAGUGGGCGCGGCCAGACUGCC [G17U C31G U32C U34C U38C], the self-cleavage is 0.01.

On to GGCAGAGCUAAACACAGCGUAGCACAGUGGCUGUGGCUAGACUGCU [C10A G21A A25C C46U], for which the self-cleavage was 0.17.

Turning to UACAGAGCUCAACACAGCGUGGCAACGUGGCUGUGGCUAGGCUGCC [G1U G2A A26C A41G], the self-cleavage is 0.03.

For GGUAAAGCUCAACACAGCGUGGCAAAGUGGCUGUGGCUGGACUGCC [C3U G5A A39G], the self-cleavage was found to be 0.4.

For GGCAGAGCUCAACACAACGUGACAAAGUGCCUGAGGCUAAACUGCC [G17A G22A G30C U34A G40A], the self-cleavage is 0.01.

Turning to GGCAGAGCUCAACAAAGCUUGGCAAAGUAGCAGUGGCUACACUGCC [C15A G19U G29A U32A G40C], the self-cleavage was found to be 0.03.

With GGCAGAGCUCAAAACAGGGUGGAAAAGUGGCUGUGGCUAGACUGCC [C13A C18G C23A], the self-cleavage was 0.09.

Regarding GGAAGAGCUCAGCACAGCGUGGCAAAGUGGCUAUGGCUAGACUGCC [C3A A12G G33A], the self-cleavage came to 0.43.

Consider GGCACACGUAAACACAGCGUGGCAAAGUGGCUGUGGCUAGCCUGCC [G5C G7C C8G C10A A41C], for which the self-cleavage was found to be 0.02.

For the variant GGCAGAGCUAAACACAGCGUAGCAAAGUUGCUGCGGCUAGACUGCC [C10A G21A G29U U34C], the self-cleavage was found to be 0.02.

Take CGAAAAGCUCAACACAGCGUGGCAAAGUGGCUGUGGCUAGCCUGCC [G1C C3A G5A A41C]: the self-cleavage was 0.1.

For the variant CGCACAGCUCAACACAGCGUGGCAAAGAGGCUGUGGCUAAACUGCC [G1C G5C U28A G40A], the self-cleavage turned out to be 0.01.

Turning to GCCAGAGCUCAAAACAGUAUGGCAAAGUGGCUGUGGCUAGACUGCC [G2C C13A C18U G19A], the self-cleavage came to 0.02.

Regarding GGCUGAGCUCAACACAGGGUGGCAAGGUGGCUGUGGCUAGACUUCC [A4U C18G A26G G44U], the self-cleavage was 0.01.

GGCAGAACUCAACACAGCGUGGCAAAGUCGCUGUGCCUAGACUGCC [G7A G29C G36C]: the self-cleavage was found to be 0.02.

For GGCAGAACUCAACACAGCGUGGCAAAGUGGGUGUGGAUAGACUGCC [G7A C31G C37A], the self-cleavage came out at 0.11.

Take GUCAGAGGUCAACACAGCGCGGCAAAGUGGCUGUGGCUAGACUGCC [G2U C8G U20C]: the self-cleavage is 0.02.

In the case of GGGAGAGCUCAACACAACGUGGCAAAGUAGCUGUGGCUAGACUGCC [C3G G17A G29A], the self-cleavage amounted to 0.13.

With GGCAGAGCUCAACACAGCGUGACAAAGUUGAUGUGGCCAGACUGCC [G22A G29U C31A U38C], the self-cleavage is 0.38.

For GGCAGAGCCCAACACAGCGUGGCAAAGUGGCUGUGGCUAGACAGAC [U9C U43A C45A], the self-cleavage worked out at 0.04.

GGCAAAGCUCACCACAGCGUGGCAAAGUGGUUGUGGCUAGACUGCC [G5A A12C C31U]: the self-cleavage is 0.03.

Consider GGCAGAGCUCAACACAGCGAGGCAAAGUGCCUGUGGCAAGACUUCC [U20A G30C U38A G44U], for which the self-cleavage worked out at 0.09.

With GGCACAACUCAACACAGCGUGGCAGAGUGGCCGUGGCUAGACUGCC [G5C G7A A25G U32C], the self-cleavage is 0.12.

Consider GGUAGCGCUCAACACGGUGUGGCAAAGUGGCUGUGGCUAGACUGCC [C3U A6C A16G C18U], for which the self-cleavage worked out at 0.44.

With GGCAGAGCUCAAUACAGCGUGGUAAAGUGGCCGUAGCUUGACUGCC [C13U C23U U32C G35A A39U], the self-cleavage is 0.05.

Consider GGUACAGCUCAACACAGCUUGGCAAAGUGGCUGUGGCUAGACUGCC [C3U G5C G19U], for which the self-cleavage worked out at 0.56.

Consider GGCAGAGCUCAACAGAGCGUGGCAAAGUGCGUGUGGCUGGACUGCC [C15G G30C C31G A39G], for which the self-cleavage was 0.

Consider GGCAGAGCUCAACACAUCGUGGCAAAGUGGCUGUGGCUAGAUCGCC [G17U C42U U43C], for which the self-cleavage is 0.16.

In the case of GGCAGAGCUCCAGACAGCGUGGAAAAGUGGCUGUGGCUGGUCUGCC [A11C C13G C23A A39G A41U], the self-cleavage came to 0.

Take GGCAGAGCUAAACACAGCGUGGCAAAGUGGCUGUGGGUGGACUGCC [C10A C37G A39G]: the self-cleavage was determined as 0.

With GUCAGCGCUCAACACAGCGAGCCAAAGUGGCUGUGGCUAGACUGCC [G2U A6C U20A G22C], the self-cleavage is 0.02.

GGUACAGCUCAACACAGCGUGGCAAAGUCGCGUUGGCUAGACUGCC [C3U G5C G29C U32G G33U]: the self-cleavage was 0.04.

GGCAGAGGCCAACACAGCGAGGCAAAGAGGCUGUGGCUAGACUGCC [C8G U9C U20A U28A]: the self-cleavage stood at 0.01.

Regarding GGCAGAGCUCAACACUGUGUGGCAGAGGGGCUGGGGCUAGACUGCC [A16U C18U A25G U28G U34G], the self-cleavage amounted to 0.03.

Regarding GGGAGAGCUCAACACAGCGUAGCUAAGUGGCUGUGGCUAGACUGCC [C3G G21A A24U], the self-cleavage amounted to 0.11.

As for GGAAGAGCUCAAAACAGCGUGGCAAAGUGGCUUUGGCUAGACUGCC [C3A C13A G33U], the self-cleavage came out at 0.07.

With GGCAGAACUGAACACAGCGUGGCAAAGUGGCUGUCGCUAGAGUGCC [G7A C10G G35C C42G], the self-cleavage was 0.02.

With GGCAGAGCUCAACACAGCGUUGCAAAGUGGCCGUUGCUAGACUGCC [G21U U32C G35U], the self-cleavage stood at 0.01.

As for GGGAGAGCUAAACACAGCGUGGCAAAGUGGCUGUGCCUAGAGUGUC [C3G C10A G36C C42G C45U], the self-cleavage turned out to be 0.

Take GGCAGAGCUCAACACAGCGUGGGAAAGUGGAUGUGGCUAGACUUCC [C23G C31A G44U]: the self-cleavage was 0.02.

For GGCAGGGCUCAACACAACGUAGCAAAGUGUCUGUGGGUAGACUGCC [A6G G17A G21A G30U C37G], the self-cleavage is 0.04.

For the variant GGCAUAGGUCAACACAGCGUGGCAAAGUGGCUGUGGAUAGAAUGCC [G5U C8G C37A C42A], the self-cleavage amounted to 0.06.

In the case of GGCAGAGCUCAACACAGCGUGGCAAAGUGGCUGUGGCUCCAAGGCC [A39C G40C C42A U43G], the self-cleavage came to 0.03.
